Results reported in PubChem BioAssay AID488969 (Vanderbilt High Throughput Screening Facility, 2010).
Whole data set: some 110,000 compounds, median “z-score” near -0.1, cut for the highest 2% near 2. The list shows a part of the results. Active and inactive are the calls of the source.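 How the source made its calls: active means z-score in the third read window above 3 or below -3; inactive means the rest.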

molecular target: Metabotropic glutamate receptor 8 (Rattus norvegicus) (UniProt P70579); test: rat mGluR8 modulators via GIRK flux, primary screen, cell-based, thallium flux, HTS (AID 488969); settings: HEK293 rat mGluR8, GIRK (G protein-gated inwardly rectifying potassium channel) thallium flux, FluoZin2; at 10 µM; stronger effect = higher value; submaximal glutamate (EC20) added with thallium
UniProt P70579, sequence (P70579 whole entry, looked up): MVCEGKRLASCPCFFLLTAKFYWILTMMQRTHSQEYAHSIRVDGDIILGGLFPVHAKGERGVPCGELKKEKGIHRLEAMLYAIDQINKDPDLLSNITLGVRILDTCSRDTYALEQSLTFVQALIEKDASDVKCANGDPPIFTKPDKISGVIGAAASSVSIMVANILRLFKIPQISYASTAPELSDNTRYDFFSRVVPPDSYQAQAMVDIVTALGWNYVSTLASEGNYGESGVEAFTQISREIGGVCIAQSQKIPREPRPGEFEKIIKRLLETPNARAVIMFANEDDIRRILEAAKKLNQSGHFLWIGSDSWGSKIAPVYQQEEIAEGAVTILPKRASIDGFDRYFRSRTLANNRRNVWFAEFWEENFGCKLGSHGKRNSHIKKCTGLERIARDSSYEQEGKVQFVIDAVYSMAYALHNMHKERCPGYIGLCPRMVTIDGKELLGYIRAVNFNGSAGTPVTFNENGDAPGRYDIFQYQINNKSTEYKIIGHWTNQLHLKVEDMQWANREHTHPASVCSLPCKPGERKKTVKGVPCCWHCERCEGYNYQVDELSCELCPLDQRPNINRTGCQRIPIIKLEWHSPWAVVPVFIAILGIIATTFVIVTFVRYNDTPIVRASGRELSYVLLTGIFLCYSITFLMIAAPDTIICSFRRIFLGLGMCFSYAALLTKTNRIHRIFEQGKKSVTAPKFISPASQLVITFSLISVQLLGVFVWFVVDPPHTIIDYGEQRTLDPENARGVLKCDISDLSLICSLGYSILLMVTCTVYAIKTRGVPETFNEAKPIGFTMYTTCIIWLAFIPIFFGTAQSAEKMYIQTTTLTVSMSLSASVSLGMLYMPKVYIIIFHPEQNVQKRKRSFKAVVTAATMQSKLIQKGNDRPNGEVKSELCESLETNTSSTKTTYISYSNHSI

SMILES	z-score
Cc1nnc(Sc2nc3ccccc3o2)c2ccccc12	0.212
Cc1ccc2nc(NC(=O)CN3CCOCC3)sc2c1	0.482
CC(CNC(=O)CC(C)(C)C)NC(=O)CC(C)(C)C (stereo unspecified)	-0.138
Cc1ccc(C(=O)OC2CCN(c3ccc([N+](=O)[O-])cc3)CC2)cc1	-0.269
Cc1cc(=O)n2nc(-c3ccccc3)sc2n1	-0.0546
OC(CNCC1COc2ccccc2O1)COCc1cccs1 (stereo unspecified)	-0.47
Cc1nnc(C)n1/N=C/c1cccc(Oc2ccccc2)c1	-1.4
Cc1nn(-c2ccccc2)c(C)c1/C=N/n1c(-c2ccc(C(C)(C)C)cc2)n[nH]c1=S	1.13
Clc1ccc(-c2nnc(-c3ccco3)nc2N2CCCCC2)cc1	-0.507
Oc1[nH]c2ccccc2c1N=Nc1nc2ccccc2s1	2.12
CN(C)c1ccc(-c2noc(C3CCN(S(=O)(=O)c4ccc(C(=O)O)cc4)CC3)n2)cc1	-0.84
Nc1ncncc1-c1ccc([N+](=O)[O-])cc1	-0.108
O=C(CNS(=O)(=O)c1cccc(Cl)c1)Nc1ccc(-c2nc3ccccc3s2)cc1	-0.517
O=C(Cc1cccs1)Nc1nnc(SCc2ccc(C(F)(F)F)cc2)s1	0.0915
CC(C)C(c1nnnn1C1CCCC1)N1CCOCC1 (stereo unspecified)	-0.00633
COc1ccc(N(C)C(=O)Nc2ccc3c(c2)nnn3C)cc1	0.188
Cc1ccc(/C=C/C(=O)O)cc1S(=O)(=O)NCCO	0.471
CCOC(=O)c1ccc(N2C(=O)C(O)=C(C(C)=O)C2c2ccccn2)cc1 (stereo unspecified)	0.0337
O=Nc1ccc(NOC(=O)c2ccccc2Br)cc1	-0.308
O=C(NCc1cccs1)c1ccccc1	-0.268
COc1ccc(C(=O)Nc2nc3c(s2)Cc2cc(OC)ccc2-3)cc1	0.0208
Cc1ccc(-n2c(SCC(=O)Nc3ccc4c(c3)OCCO4)nnc2-c2ccco2)cc1	-0.216
NS(=O)(=O)c1cccnc1Nc1c(Cl)cccc1Cl	0.0813

SMILES	z-score
CCOC(=O)c1c(CC(C)C)csc1NC(=O)COC(=O)c1cc(OC)c(OC)cc1[N+](=O)[O-]	-0.488
O=C(C1CC2CCC1C2)N1CCN(Cc2ccc3c(c2)OCO3)CC1 (stereo unspecified)	0.0282
COC(=O)c1[nH]c2c(c1C)C(=O)CC(c1ccccc1)C2 (stereo unspecified)	-0.281
O=C(CNC(=O)c1cccs1)NCC(=O)OCc1c(Cl)cccc1Cl	0.0496
CCC1(c2ccccc2)NC(=O)N(Cc2ccc(C(=O)OC)cc2)C1=O (stereo unspecified)	-0.422
Cn1cccc1/C=N/NC(=O)c1sc2cc(Cl)ccc2c1Cl	-0.527
Cc1ccc(-n2nnnc2SC(C)C(=O)Nc2ccccc2-c2ccccc2)cc1 (stereo unspecified)	-0.321
COc1ccc(OCc2cccc(C(=O)N3CCCC3)c2)cc1	-0.0387
Cc1cccc(OCCCn2c(CCNC(=O)C(C)C)nc3ccccc32)c1	-0.275
CC(C)(C)NC(=O)CSc1nsc(SCC(=O)NC(C)(C)C)c1C#N	-0.0606
COc1cc(C2C(C#N)=C(N)Oc3c2c(-c2ccccc2)nn3-c2ccccc2)cc(OC)c1OC (stereo unspecified)	-0.241
CC(C)N(C(=S)Nc1cc(S(=O)(=O)N2CCOCC2)ccc1Cl)c1ccccc1	-0.525
c1ccc(-n2nnnc2-n2ccnc2)cc1	0.463
O=C(COc1ccc(Cl)cc1Cl)N(Cc1ccco1)C1CCS(=O)(=O)C1 (stereo unspecified)	-0.481
O=C(OCN1C(=O)c2ccccc2C1=O)c1ccccc1	0.287
CCCCNC(=O)CCCn1c(=O)c2ccccc2n(CC(=O)NCCC2=CCCCC2)c1=O	-0.355
Cc1ccc(/C(C#N)=C\c2cn(C)c3ccccc23)cc1	-0.217
CCCCn1c(SCC(=O)N2CCN(c3ccccc3)CC2)nc2ccsc2c1=O	-1.07
CCOC(=O)C1=C(C)N=C2SC(C)C(=O)N2C1c1cccc(F)c1 (stereo unspecified)	-1.68
CC(NC(=O)Cn1cnnn1)C12CC3CC(CC(C3)C1)C2 (stereo unspecified)	0.238
COc1ccccc1C(=O)N1C(CC(=O)Nc2cc(Cl)ccc2C)C(=O)NC2CCCCC21 (stereo unspecified)	-0.0821
CC(C)(/C=N/O)/[N+]([O-])=C/c1ccco1	0.0898
CCN(CC)C(=O)CSc1nnc(-c2ccccc2)o1	-0.269

SMILES	z-score
O=C(OCC(=O)c1c[nH]c2ccccc12)C1=COCCO1	-0.388
CCSc1nnc(NC(=O)/C=C/c2ccc3c(c2)OCO3)s1	-0.23
O=C(CSc1ccc(Cl)cc1)Nc1ccccc1N1CCN(C(=O)c2ccccc2)CC1	-0.233
CCOC(=O)C(CCC#N)(CCC#N)C(=O)OCC	-0.16
O=c1cc(-c2ccc([N+](=O)[O-])cc2)nc2cc(-c3ccc(F)cc3)[nH]n12	-0.306
Cc1oc(C(C)(C)C)cc1C(=O)Nc1cccc(C(=O)O)c1	-2.4
CC(=O)c1c(N=CN(C)C)nc(C)nc1-c1ccccc1	0.464
COc1cc2c(cc1NC(=O)C(C)Sc1ccc(C)cc1)oc1ccccc12 (stereo unspecified)	-0.125
COc1ccc(-c2nn(CC(=O)Nc3ccc(Cl)c(Cl)c3)c(=O)c3ccccc23)cc1	-0.116
O=S1(=O)CCN(Cc2ccc(Cl)c(Cl)c2)CC1	-0.199
Cc1cccc(C(=O)N2CCC(n3nnc4cc(F)ccc43)CC2)c1	-0.103
Brc1ccc(-n2cc(-c3ccccc3)c3c(NN4CCOCC4)ncnc32)cc1	-0.0384
N#CC1(C#N)C(c2ccccc2)OC23CCCCCC2C1(C#N)C(=N)O3 (stereo unspecified)	0.016
COc1ccc(-c2cc(C(=O)N3CCCc4ccccc43)no2)cc1	-0.108
COC(=O)CN1C(=O)C(O)=C(C(C)=O)C1c1ccc([N+](=O)[O-])cc1 (stereo unspecified)	-0.119
Cc1[nH]c2ccccc2c1/C=C/c1nc2ccccc2c(=O)n1-c1cccc([N+](=O)[O-])c1	0.102
CCOC(=O)c1c(N)nn(C(=O)CC)c1-c1ccccc1	-0.667
COc1c2c(nc3occc13)C(CC=C(C)C)(OC)C(OC(C)=O)CC2 (stereo unspecified)	0.0647
Cc1cccc(NC(=S)NC(=O)CCc2ccccc2)c1C	0.747
COc1ccc(Cl)cc1S(=O)(=O)N1CCCC1	-0.343
CCCc1ccc(-c2ccc(/C=C/C(=O)O)cc2)nc1	-0.295
Fc1ccc(N2CCN(C(c3cccs3)c3nnnn3C3CCCC3)CC2)cc1 (stereo unspecified)	-1.09
CCN(CC)Cc1cc(CC(C(N)=O)C(N)=O)ccc1OC	-0.15

SMILES	z-score
O=C(CSc1ncn[nH]1)Nc1c(F)cc(F)cc1Br	-0.0805
Cc1ccc(CNc2ccc3c(c2)ncn3C)cc1	-0.0947
COCCCNC(=O)CCn1c(=O)c2ccccc2n(CC(=O)Nc2ccccc2C)c1=O	-0.201
COC(=O)c1ccc(NC(=O)CNS(=O)(=O)c2cccs2)cc1	-0.0405
CCCCCC(=O)N/N=C(\C)c1ccc(Cl)cc1	-0.199
Fc1ccc2[nH]c3c(NCCN4CCOCC4)ncnc3c2c1	0.07
Cc1noc(NS(=O)(=O)c2ccc(NC(=O)CCCOc3ccc(Cl)cc3Cl)cc2)c1C	0.465
Cc1ccc(Nc2nc(-c3c(C)nc4ccccn34)cs2)cc1	0.00844
CCOc1ccc(CC(=O)C2C(=O)CCCC2=O)cc1OCC	0.335
COc1ccc(-c2noc(CN(C)S(=O)(=O)c3ccc(Cl)cc3)n2)cc1OC	-0.395
Cc1ccc(Nc2nc(N)nc(CSc3nnnn3-c3ccccc3)n2)cc1	-0.258
CCCN(CC1CC1)C(=S)Nc1ccc(Oc2ccccc2)cc1	active: 3.7
Cc1ccc(/C=N/NC(=O)c2sccc2OCc2ccc(F)cc2)cc1	-0.163
O=C(N/N=C\c1ccc(CNS(=O)(=O)c2ccccc2)o1)C(=O)Nc1ccc(F)cc1	0.0979
Cn1c(-c2ccc(F)cc2)cnc1NCc1ccc(C#N)cc1	-0.342
C=CCOc1ccc2c(c1)C(=NO)c1cc(OCC=C)ccc1-2	-0.466
Cc1noc(C)c1S(=O)(=O)Nc1c(C)n(C)n(-c2ccccc2)c1=O	0.316
COc1nc(-c2ccncc2)nc2ccccc12	-0.267
Cc1ccc(NC(=O)/C(=C/C=C/c2ccccc2)NC(=O)c2ccccc2)cc1	-0.104
COC(=O)C(NC(=O)c1ccc(C)cc1)(Nc1cccc(C)n1)C(F)(F)F (stereo unspecified)	-0.71
Cc1ccc(C(=O)CSc2nnc(-c3ccco3)o2)o1	-0.958
CCOC(=O)C1CCCN(C(=O)c2cn(C)c3ccc(S(=O)(=O)N(C)C)cc3c2=O)C1 (stereo unspecified)	-0.568
O=[N+]([O-])c1cc(-c2n[nH]c(-c3ccccc3)n2)cc([N+](=O)[O-])c1	1.48

SMILES	z-score
Cc1c(NC(=O)CN2C(=O)NC(C)(c3ccc4c(c3)OCCO4)C2=O)c(=O)n(-c2ccccc2)n1C (stereo unspecified)	-0.458
CCCCNC(=O)c1nc2ncc(Br)cn2n1	0.0529
Cc1cccc(C(=O)NNC(=O)c2ccc(-c3ccccc3)cc2)c1	0.252
CCc1cc2c3c(c(=O)oc2cc1OC)CCCC3	0.11
Cc1ccccc1OCCNC(=O)c1ccccc1Sc1ccccc1C#N	-0.491
Cc1cc(C(F)(F)F)nn1CC(=O)NCc1ccccc1	-0.468
CC(=O)n1cc(/C=N/NC(=O)c2sc(C)nc2C)c2ccccc21	-0.221
COC(=O)/C=c1/s/c(=C(/C#N)C(=O)N2CCCCC2)n(-c2ccccc2)c1=O	-0.333
O=C(NCC(O)c1ccccc1)c1cccc(S(=O)(=O)N2CCOCC2)c1 (stereo unspecified)	0.795
CCOCCCNC(=O)C1CCC(=O)N1CCc1ccccc1 (stereo unspecified)	0.278
Cc1cnc(NC(=O)CSc2nnc(C)s2)s1	-0.32
CCn1c2ccccc2c2cc(C3N=C(N)Nc4nc5ccccc5n43)ccc21 (stereo unspecified)	0.109
Cc1ccc(NC(=O)c2ccc(-n3cccn3)c([N+](=O)[O-])c2)cc1C	-0.168
Cc1ccccc1N(C)C(=O)c1coc(=O)c2ccccc12	0.0832
CCOc1ccc(CNC(=S)NCc2ccc(OCC)cc2)cc1	-0.199
CCOC(=O)c1ccc(NC(=O)CSc2nnc(C3CC3)n2C)cc1	0.599
CCN(CC)C(=O)c1sc2nc(-c3cccs3)cc(-c3ccc(Cl)cc3)c2c1N	-1.31
CCCOc1ccc(C(C)=O)cc1CSc1nc(O)cc(=O)[nH]1	0.000135
CC(=O)/C(=N/Nc1ccccc1)Sc1nnc(CCc2ccccc2)n1-c1ccccc1	-0.689
